# Measurements reported in PubChem BioAssay AID463173 (ICCB-Longwood Screening Facility, Harvard Medical School, 2010).
# About 1,700 (3.3%) of roughly 52,000 compounds were called active. Cut-off read from the data, not from the text of the source: active = survival mostly below about 52% (no sharp cut-off); inactive = mostly above about 56%. The list shows a part of the results.
# Tested on: Wild type
# Assay: S. aureus survival, RN4220 and DeltatarO strains – OD600, teichoic acid synthesis inhibitors, primary screen (AID 463173)
# Details: S. aureus RN4220 wild type/DeltatarO growth, OD600, 18 h, stronger effect = lower value, screened at 18.75 µg/mL (by protocol)
row,SMILES,survival
1,CCOc1ccc(NC(=O)N(C(C)C)C2CCN(C(C)=O)CC2)cc1,inactive: 64%
2,CCOc1ccc(-c2cn3c(n2)sc2cc(C(=O)NC4CCCc5ccccc54)ccc23)cc1 (stereo not given),inactive: 100%
3,Cc1ccc(NC(=O)CC(C)S(=O)(=O)c2ccc3c(c2)NC(=O)CO3)cc1C (stereo not given),inactive: 100%
4,Cc1cccc(NC(=O)CSc2nc3c(oc4ccccc43)c(=O)n2-c2ccc(F)cc2)c1,inactive: 74%
5,COc1ccc(Nc2cc(C(=O)NCc3ccccc3)c3ccccc3n2)c(OC)c1,inactive: 128%
6,Cc1oc2ccc(O)c(CN3CCCC3)c2c1C(=O)Nc1cccc(Cl)c1C,inactive: 89%
7,O=S(=O)(c1ccc2nc(N3CCN(c4ccccc4)CC3)ccc2c1)N1CCCCC1,active: 1%
8,COc1ccc(-c2noc(-c3cccc(OC)c3OC)n2)cc1,active: -3%
9,COc1ccc(N(Cc2cccs2)C(=O)COc2cc(C)c(Cl)c(C)c2)cc1,inactive: 79%
10,CCOc1ccc2nc(NC(=O)c3cc(=O)c4cc(C)cc(C)c4o3)sc2c1,inactive: 83%
11,CN(C)c1ccc(-c2nnn(CC(=O)N(C)C3CCCCC3)n2)cc1,inactive: 104%
12,COc1ccc(NC(=O)c2cn3c4c(ccc(Cl)c4c2=O)OC(C)C3)cc1OC (stereo not given),inactive: 124%
13,CSc1ncc(C(=O)Nc2ccc(C(C)=O)cc2)c(-c2ccccc2)n1,inactive: 83%
14,O=C(NCC1CCCO1)c1cccc2ccccc12 (stereo not given),inactive: 111%
15,COc1ccc(Cl)cc1NC(=O)Cn1cc2c(n1)CCC(C)C2 (stereo not given),inactive: 85%
16,O=c1c2cnn(-c3ccc(F)cc3)c2ncn1Cc1ccc(F)cc1,inactive: 80%
17,COc1ccc(CNC(=O)C2Cc3cc(S(=O)(=O)N4CCCCCC4)ccc3N2C(C)=O)cc1 (stereo not given),inactive: 69%
18,CSc1nc(NC(C)=O)nc(C)c1Br,inactive: 103%
19,COc1ccc(-c2cc(C(F)(F)F)nc(S(=O)(=O)CCC(=O)NCc3cccnc3)n2)cc1,inactive: 103%
20,Cc1cc(-c2ccc(S(=O)(=O)Nc3ccc(Br)c(C)c3)s2)on1,inactive: 78%
21,CSc1nnc2[nH]c(=O)cc(C)n12,inactive: 68%
22,N#Cc1c[nH]n2c(NC3CCCCC3)c(-c3cccc(Cl)c3)nc12,inactive: 66%
23,CCOc1ccc2oc(=O)cc(CN3CCN(c4ccccc4)CC3)c2c1,inactive: 89%

row,SMILES,survival
1,O=C(NC1CCCC1)C1CCCN(S(=O)(=O)c2ccc(-n3cnnn3)cc2)C1 (stereo not given),inactive: 108%
2,CCc1ccc(NC(=O)c2cc3c([nH]c2=O)CC(C)(C)CC3=O)cc1,inactive: 66%
3,COc1ccc(CNC(=O)c2ccc(-c3nc(CSc4ccccc4)c(C)o3)cc2)c(OC)c1,inactive: 100%
4,CC(=O)c1cccc(NC(=O)c2cc3nc(-c4ccc(Br)cc4)cc(C(F)(F)F)n3n2)c1,inactive: 22%
5,Cc1ccc(-c2nc(C)c(CCNC(=O)C(=O)Nc3ccc4c(c3)OCO4)s2)cc1,inactive: 56%
6,COc1ccc(CCN2C(=O)N(c3ccccc3)C(=O)C2CC(=O)Nc2ccccc2)cc1 (stereo not given),inactive: 73%
7,COc1cc2cc(CN(Cc3ccc4c(c3)OCO4)C(=O)NCc3ccccc3)c(=O)[nH]c2cc1OC,inactive: 117%
8,CCOC(=O)C1CCN(CCC(=O)Nc2ccc(OC)cc2)CC1,inactive: 71%
9,CCCN1C(=O)C2(c3ccccc31)c1c(oc3ccc(C)cc3c1=O)C(=O)N2CCOC (stereo not given),inactive: 82%
10,Cc1nc(N2CCOCC2)c2c(C(=O)N3CCN(c4cccc(C)c4C)CC3)c(C)oc2n1,inactive: 148%
11,COc1cc(C(=O)N2CC(=O)Nc3ccc(C)cc3C2c2ccc(F)cc2)cc(OC)c1OC (stereo not given),inactive: 147%
12,COC(=O)c1ccccc1NC(=O)Cn1c(=O)n(CCCC(=O)NCCc2ccc(OC)c(OC)c2)c(=O)c2ccccc21,inactive: 87%
13,O=C1CC(NNc2ccccc2)C(=O)N1c1cccc(Cl)c1 (stereo not given),inactive: 63%
14,Cc1cc(C)c(NC(=O)CCC(=O)N2Cc3ccccc3Oc3ncccc32)c(C)c1,inactive: 73%
15,CCCC(=O)Oc1ccc2ccc(=O)oc2c1,inactive: 120%
16,COc1ccc(Nc2cc(C)c3cc(NC(=O)c4cc(OC)cc(OC)c4)ccc3n2)cc1,inactive: 75%
17,Cc1ccc(C)c(NC(=O)NCc2ccc3c(c2)CCN3C(=O)c2ccccc2)c1,inactive: 66%
18,CCSc1nc2ccc(N)cc2s1,inactive: 115%
19,COc1ccc(S(=O)(=O)NCc2ccc(C(=O)NCc3ccccc3)cc2)cc1,inactive: 82%
20,CCCOc1ccc(C2c3c(oc4ccccc4c3=O)C(=O)N2c2nc(C)c(C(=O)OCC)s2)cc1 (stereo not given),inactive: 66%
21,CCN1CCC(N(Cc2ccc(F)cc2)C(=O)Nc2cc(Cl)ccc2C(=O)OC)CC1,inactive: 80%
22,CC(=O)c1ccc(N2CCN(C(=O)c3ccc(Cn4c(=O)[nH]c5ccccc5c4=O)cc3)CC2)cc1,inactive: 143%
23,O=C1C=CC(=O)N1c1ccccc1F,inactive: 99%

row,SMILES,survival
1,CC(C)c1ccc(NC(=O)C2(C)Cc3ccccc3C(=O)O2)cc1 (stereo not given),inactive: 102%
2,Cc1ccc2c(c1)-c1c(cnn1CC(=O)N1CCN(c3cc(Cl)ccc3C)CC1)CO2,inactive: 68%
3,Cc1ccc(N=C2CCCN2Cc2ccccc2)c(C#N)c1,inactive: 124%
4,COC(=O)C[N+]1(Cc2ccco2)CCCCC1,inactive: 99%
5,O=C(c1ccccc1)c1ccc2nc(Nc3cc(Cl)ccc3O)c3nncn3c2c1,inactive: 133%
6,CC(C)C(NS(=O)(=O)c1cccc2cccnc12)C(=O)Nc1ccc(OC(F)(F)F)cc1 (stereo not given),inactive: 100%
7,CS(=O)(=O)N(CCc1ccccc1)CC(=O)N1CCOCC1,inactive: 102%
8,COCCNC(=O)CCc1nc2cccnc2n1Cc1ccc(OC)cc1,inactive: 136%
9,COc1ccc(Cl)cc1NC(=O)c1cc2c(s1)-c1ccccc1OC2,inactive: 80%
10,CCc1ccc(OC(C)C(=O)Nc2c(C(=O)c3ccccc3)oc3ccccc23)cc1 (stereo not given),active: 13%
11,Oc1c(Br)cc(Br)cc1-c1nc2ccccc2s1,inactive: 133%
12,CS(=O)(=O)N(CC(=O)NCCSc1ccccc1)c1cc(C(F)(F)F)ccc1Cl,inactive: 70%
13,COc1ccc(OC)c(NC(=O)CSc2cn(CC(=O)N3CCOCC3)c3ccccc23)c1,inactive: 94%
14,COc1cccc(C2C(C(=O)Nc3ccccc3)=C(C)Nc3nc(-c4ccccc4)nn32)c1 (stereo not given),inactive: 76%
15,O=C(c1ccccc1)c1ccccc1NC(=O)c1ccccc1C(=O)O,inactive: 89%
16,Cc1ccc(-c2nc(CS(=O)CC(=O)N3CCN(c4ccccc4)CC3)c(C)o2)cc1 (stereo not given),inactive: 88%
17,CCCN(CCC)C(=O)C1CCCN(S(=O)(=O)c2ccc3c(c2)oc(=O)n3C)C1 (stereo not given),inactive: 82%
18,O=C(Nc1ccccc1-c1ccccc1)NC1CCN(CC(=O)N2CCOCC2)CC1,inactive: 102%
19,COc1ccc(-c2noc(-c3ccc(NC4CCCC4)c([N+](=O)[O-])c3)n2)cc1,inactive: 118%
20,CCN(CC)c1cc(C)c2cc(NC(=O)/C=C/c3ccc(C)cc3)ccc2n1,inactive: 68%
21,CC(=O)c1ccc(N2CCN(C(=O)c3cc4cc5cc(C)ccc5nc4s3)CC2)cc1,inactive: 74%
22,Cc1ccc(C(=O)c2oc3ccccc3c2NC(=O)c2cc(-c3ccccc3)on2)cc1F,inactive: 86%
23,Cc1ccc(C)c(NC(=O)C2CCCN(S(=O)(=O)c3ccc4[nH]c(=O)ccc4c3)C2)c1 (stereo not given),inactive: 97%

row,SMILES,survival
1,Cc1noc(Cn2c(=O)c3cc4c(cc3n(CC(=O)Nc3cccc(Cl)c3)c2=O)OCO4)n1,inactive: 127%
2,COCCCNc1c2c(nc3ccccc13)CCC2,inactive: 112%
3,O=C(Nc1ccc(SC(F)F)cc1)c1cc(-c2ccc3c(c2)OCCO3)on1,inactive: 83%
4,CC(=O)Nc1nonc1-c1nnc(SCC(=O)Nc2ccc(C)cc2C)n1C,inactive: 84%
5,COc1ccc(NC(=O)[C@@H](c2ccccc2)N2Cc3ccccc3C2=O)cc1OC,inactive: 76%
6,CCOc1ccc(CNC(=O)c2c(C)nn(-c3ccc(F)cc3)c2-n2cccc2)cc1,inactive: 128%
7,CC(NC(=O)Cc1ccccc1)c1ccccc1 (stereo not given),inactive: 110%
8,CC1CCc2c(sc(NC(=O)COc3ccccc3)c2C(=O)Nc2ccccc2Cl)C1 (stereo not given),inactive: 163%
9,Cc1ccc(-n2nc(C(=O)NCCN(C)C)c(=O)n(C)c2=O)cc1,inactive: 85%
10,Cc1ccc(CSCC(=O)N2CCN(c3cc(Cl)ccc3C)CC2)cc1,inactive: 78%
11,Cc1ccc(S(=O)(=O)N2CCN(C(=O)CN3CCOCC3)C2C(C)C)cc1 (stereo not given),inactive: 105%
12,Cc1[nH]c2ccccc2c1C(=O)C(=O)NC1CC(=O)N(c2cccc(F)c2)C1 (stereo not given),inactive: 92%
13,Cc1ccc2oc(C(=O)N(Cc3ccccc3F)C3CCS(=O)(=O)C3)c(C)c2c1 (stereo not given),inactive: 88%
14,COc1cccc(NC(=O)CC2C(=O)OCCN2Cc2ccccc2)c1 (stereo not given),inactive: 161%
15,COc1ccc(C2C(C(N)=O)=C(C)Nc3nc(-c4ccccc4Cl)nn32)cc1 (stereo not given),inactive: 82%
16,Cc1ccc(-c2nn(CC(=O)NC3CCCCC3)c3c2cnc2ccc(F)cc23)cc1C,active: -3%
17,CCOc1cccc2cc(-c3nnc(Nc4ccc(F)c(Cl)c4)s3)c(=O)oc12,inactive: 68%
18,Cn1c(=O)[nH]c(=O)c2c1nc1n(CCO)c(-c3ccccc3)cn21,inactive: 76%
19,CCCCOc1ccc(-c2cc3c(=O)n(CC(=O)Nc4ccc(Cl)cc4Cl)ccn3n2)cc1,inactive: 137%
20,O=C(CSc1nc2c(cnn2-c2ccc(F)cc2)c(=O)[nH]1)Nc1ccc(Br)cc1,inactive: 82%
21,CC(C)C(=O)OC1=CN(Cc2ccccc2)S(=O)(=O)c2ccccc21,inactive: 79%
